Test results taken from publication PMC5943263.
Results are given in words; binding and its absence hold for the method and conditions named. In cells and extracts the contact can be indirect. Some results given as binding are weak or reduced against the parent protein; the word gives no strength. For some assays here: Where a sequence is shown, tags or fusion partners need not be part of it.

Sequences of proteins named here, by UniProt entry; tags and fusion partners are left off. A change or cut given only in a name is not applied to a line headed by its entry.
UniProt Q86TM6: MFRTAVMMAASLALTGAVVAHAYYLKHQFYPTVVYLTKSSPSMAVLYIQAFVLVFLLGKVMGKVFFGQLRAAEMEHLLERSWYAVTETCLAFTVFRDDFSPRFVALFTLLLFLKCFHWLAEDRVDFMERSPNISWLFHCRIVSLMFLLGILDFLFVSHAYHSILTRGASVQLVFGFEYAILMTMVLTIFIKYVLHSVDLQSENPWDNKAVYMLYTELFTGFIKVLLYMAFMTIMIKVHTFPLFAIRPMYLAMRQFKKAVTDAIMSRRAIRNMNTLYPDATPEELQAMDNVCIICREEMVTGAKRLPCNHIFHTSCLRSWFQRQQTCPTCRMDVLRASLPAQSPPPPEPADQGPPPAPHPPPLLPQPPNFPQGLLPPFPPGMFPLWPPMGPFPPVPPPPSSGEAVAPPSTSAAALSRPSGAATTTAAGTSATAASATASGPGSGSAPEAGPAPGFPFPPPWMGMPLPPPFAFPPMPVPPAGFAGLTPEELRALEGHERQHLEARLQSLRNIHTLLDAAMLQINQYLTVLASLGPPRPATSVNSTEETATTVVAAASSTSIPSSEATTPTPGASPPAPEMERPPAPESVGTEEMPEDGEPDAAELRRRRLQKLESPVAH
UniProt P61619: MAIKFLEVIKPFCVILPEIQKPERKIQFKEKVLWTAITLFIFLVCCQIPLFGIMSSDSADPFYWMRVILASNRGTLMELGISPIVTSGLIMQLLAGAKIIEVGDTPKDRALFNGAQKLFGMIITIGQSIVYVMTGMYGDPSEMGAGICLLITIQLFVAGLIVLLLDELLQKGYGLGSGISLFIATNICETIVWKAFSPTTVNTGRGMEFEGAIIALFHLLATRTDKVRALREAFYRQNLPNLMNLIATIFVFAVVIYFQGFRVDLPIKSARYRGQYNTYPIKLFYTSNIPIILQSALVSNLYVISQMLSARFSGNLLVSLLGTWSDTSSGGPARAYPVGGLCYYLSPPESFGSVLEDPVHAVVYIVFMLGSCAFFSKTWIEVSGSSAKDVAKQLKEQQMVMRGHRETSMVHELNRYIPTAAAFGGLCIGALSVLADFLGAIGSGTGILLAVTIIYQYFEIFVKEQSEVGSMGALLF
UniProt P61011: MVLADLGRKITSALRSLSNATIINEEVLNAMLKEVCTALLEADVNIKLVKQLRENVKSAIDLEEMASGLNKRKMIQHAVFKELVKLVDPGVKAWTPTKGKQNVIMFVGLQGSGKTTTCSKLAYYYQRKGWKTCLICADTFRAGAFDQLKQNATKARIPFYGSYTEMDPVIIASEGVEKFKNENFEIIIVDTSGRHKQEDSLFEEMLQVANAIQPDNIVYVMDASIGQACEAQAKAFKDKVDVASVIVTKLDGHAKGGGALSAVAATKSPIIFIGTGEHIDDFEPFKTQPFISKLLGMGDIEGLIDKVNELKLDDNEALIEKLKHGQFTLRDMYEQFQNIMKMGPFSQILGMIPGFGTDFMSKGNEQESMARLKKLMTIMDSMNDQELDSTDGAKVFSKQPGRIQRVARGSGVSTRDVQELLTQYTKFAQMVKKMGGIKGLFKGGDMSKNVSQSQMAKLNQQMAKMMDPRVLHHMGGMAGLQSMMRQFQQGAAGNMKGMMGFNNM
UniProt Q9UKV5: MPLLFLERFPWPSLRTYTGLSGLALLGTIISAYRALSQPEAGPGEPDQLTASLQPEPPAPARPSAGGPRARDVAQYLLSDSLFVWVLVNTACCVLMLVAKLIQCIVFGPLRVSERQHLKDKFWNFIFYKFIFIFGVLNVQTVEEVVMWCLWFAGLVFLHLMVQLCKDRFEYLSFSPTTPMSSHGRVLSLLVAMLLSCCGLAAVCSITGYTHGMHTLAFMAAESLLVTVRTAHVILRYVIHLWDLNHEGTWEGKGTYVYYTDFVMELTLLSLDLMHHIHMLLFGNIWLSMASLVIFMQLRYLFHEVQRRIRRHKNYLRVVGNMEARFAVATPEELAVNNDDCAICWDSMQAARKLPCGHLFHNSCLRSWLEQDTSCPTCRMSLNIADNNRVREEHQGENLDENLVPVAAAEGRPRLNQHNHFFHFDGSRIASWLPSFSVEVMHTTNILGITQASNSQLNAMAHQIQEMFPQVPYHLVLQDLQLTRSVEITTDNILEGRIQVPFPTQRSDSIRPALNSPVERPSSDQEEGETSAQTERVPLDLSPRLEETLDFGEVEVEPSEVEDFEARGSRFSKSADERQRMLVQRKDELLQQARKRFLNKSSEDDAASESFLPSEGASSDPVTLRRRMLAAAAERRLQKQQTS
UniProt Q99942: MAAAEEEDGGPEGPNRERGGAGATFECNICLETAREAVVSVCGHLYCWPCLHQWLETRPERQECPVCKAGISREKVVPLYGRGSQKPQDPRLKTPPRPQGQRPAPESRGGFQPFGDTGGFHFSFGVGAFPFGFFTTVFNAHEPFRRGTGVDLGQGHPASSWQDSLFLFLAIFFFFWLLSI

What was measured:
[1] = biological target: T1, Human Derlin-1-Flag, wild-type (human) (UniProt Q9BUN8); test: co-IP; anti-Flag M2 antibody affinity gel from lysates (20 mM Tris-HCl pH 7.5, 150 mM NaCl, 5 mM EGTA, 1% Triton X-100) of transfected HEK293 cells (WT or Derl1 KO; in some panels with Ctrl, HRD1 or Derlin-1, -2 and -3 siRNA), untreated or treated with 50 nM Tg with or without 200 nM MG132 for 16 h; beads washed with high-salt (500 mM NaCl) or low-salt (150 mM NaCl) buffer; immunoblot
T1 sequence: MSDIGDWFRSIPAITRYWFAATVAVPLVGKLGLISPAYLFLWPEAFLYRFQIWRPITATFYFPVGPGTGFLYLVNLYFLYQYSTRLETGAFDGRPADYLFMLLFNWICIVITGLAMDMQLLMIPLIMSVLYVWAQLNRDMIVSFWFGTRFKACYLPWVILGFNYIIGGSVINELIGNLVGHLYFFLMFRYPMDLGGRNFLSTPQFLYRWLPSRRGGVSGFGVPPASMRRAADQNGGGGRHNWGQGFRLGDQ

HRD1-Flag (human) = HRD1-Flag (human) (UniProt Q86TM6); test: as above
Derlin-3-Flag (human) = biological target: T2, Derlin-3-Flag (human) (UniProt Q96Q80); test: as above
T2 sequence: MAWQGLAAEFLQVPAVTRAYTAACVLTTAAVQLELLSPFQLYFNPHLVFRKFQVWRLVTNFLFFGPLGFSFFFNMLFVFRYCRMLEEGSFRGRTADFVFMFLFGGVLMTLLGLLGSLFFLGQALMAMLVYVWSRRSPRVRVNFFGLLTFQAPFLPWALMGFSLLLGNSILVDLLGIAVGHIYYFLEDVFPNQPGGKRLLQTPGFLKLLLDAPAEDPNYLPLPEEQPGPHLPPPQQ

Derlin-2-Flag (human) = biological target: T3, Derlin-2-Flag (human) (UniProt Q9GZP9); test: as above
T3 sequence: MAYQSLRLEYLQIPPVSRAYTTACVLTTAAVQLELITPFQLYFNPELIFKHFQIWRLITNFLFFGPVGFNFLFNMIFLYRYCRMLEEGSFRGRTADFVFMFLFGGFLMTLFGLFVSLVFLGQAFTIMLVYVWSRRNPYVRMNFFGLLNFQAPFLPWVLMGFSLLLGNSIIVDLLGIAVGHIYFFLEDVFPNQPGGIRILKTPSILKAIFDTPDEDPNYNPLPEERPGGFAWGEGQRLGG

[2] = biological target: T1, Human Derlin-1-Flag, wild-type (human); test: condition: only in the high-molecular-weight fractions of the sucrose gradient; co-IP; as a2, the high-molecular-weight fractions only (containing rough ER marked with Sec61α and S16; fractions 15–18 in Fig. 4d)
[3] = biological target: T1, Human Derlin-1-Flag, wild-type (human); test: co-IP; transfected HEK293 cells treated with 50 nM Tg and 200 nM MG132 for 16 h, solubilized in 1% digitonin, 15–40% sucrose gradient (100,000 x g, 4 °C, 16 h); each fraction (200 μl) immunoprecipitated with anti-Flag Ab affinity gel; immunoblot; all fractions
Sec61α-Flag (human) = Sec61α-Flag (human) (UniProt P61619); test: co-IP; anti-Flag M2 antibody affinity gel from lysates (20 mM Tris-HCl pH 7.5, 150 mM NaCl, 5 mM EGTA, 1% Triton X-100) of transfected HEK293 cells (WT or Derl1 KO; in some panels with Ctrl, HRD1 or Derlin-1, -2 and -3 siRNA), untreated or treated with 50 nM Tg with or without 200 nM MG132 for 16 h; beads washed with high-salt (500 mM NaCl) or low-salt (150 mM NaCl) buffer; immunoblot
[4] = biological target: T1, Human Derlin-1-Flag, wild-type (human); test: co-IP; as a2, the high-molecular-weight fractions only (containing rough ER marked with Sec61α and S16; fractions 15–18 in Fig. 4d)

Substance	binding [1]	binding [3]	other results
HRD1 (C291S/C329S)-Myc-His (from UniProt Q86TM6 1-617) (enzyme)	binds		
6Myc-SRP54, 54-kDa subunit of the SRP (from UniProt P61011 1-504)	binds		
endogenous Sec61α (from UniProt P61619 1-476)			binding (HRD1-Flag (human)): binds
Sec61α-HA (from UniProt P61619 1-476)	binds		binding (Derlin-3-Flag (human)): binds; binding (Derlin-2-Flag (human)): binds
gp78-HA (from UniProt Q9UKV5 1-643) (enzyme)		binds	binding [2]: no binding
6Myc-RMA1 (printed as 6Myc-RNA1) (from UniProt Q99942 1-180) (enzyme)		binds	binding [2]: no binding
HRD1-Myc-His, wild-type (from UniProt Q86TM6 1-617) (enzyme)	binds	binds	binding (Sec61α-Flag (human)): binds; binding [4]: binds
